The values below come from ChEMBL document CHEMBL4888484, “Replenishing the malaria drug discovery pipeline: Screening and hit evaluation of the MMV Hit Generation Library 1 (HGL1) against asexual blood stage Plasmodium falciparum ,using a nano luciferase reporter read-out” (2022).

Screen size: about 150,000 compounds; about 540 (0.36%) showed an effect of 50% or more. Some of the results follow.

This experiment relates to Plasmodium falciparum. As to the kind of experiment: Primary screen in NF54 nanoGlo assay, in single point, at 2uM, 72h; a lower Z score goes with more inhibition. The conditions noted are these: timepoint 72 hour. It counts as functional, Erythrocyte.
Broadly, the % Inhibition is the change of the read-out against control, counted positive when it falls. Turning to `CCC[C@H](C)C(=O)Nc1cccc(Cl)c1Cl`, the “% Inhibition” value is -19% and the Z score is on record as 3.72.
In the same order, the values of `c1ccc(C(c2ccccc2)N2CCN(c3nn4cnnc4c4ccccc34)CC2)cc1` are 81% and -11.8.
In the same order, the values of `CCc1noc(C)c1C(=O)OCC1CCC1` are -10% and 1.6.
In the same order, the values of `COC(=O)C(C)(C)CCN1CCOC(C2CCCO2)C1` (stereo not given) are -9% and 1.15.
With `CCCCCOCC(=O)Nc1cn(C)nc1C`, the “% Inhibition” value came out at 19% and the Z score is given as -2.44.
In the same order, the values of `O=C1CC[C@@]2(CCCN(C(=O)c3c[nH]c(=O)[nH]3)C2)CN1CCc1ccccc1` are -6% and 0.99.
Regarding `Cc1ccccc1CS(=O)(=O)N1CCCc2ccccc21`, the “% Inhibition” value is reported as -9% and the Z score is recorded as 1.25.
In the same order, the values of `O=C(Nc1nnc[nH]1)[C@@H]1COCC(=O)N1Cc1ccccc1` are -9% and 1.49.
In the same order, the values of `O=C(Nc1cccnc1-n1cccn1)c1ccccc1` are 15% and -1.94.
In the same order, the values of `Cc1ncn(Cc2nc(C3CCCC3)no2)c(=O)c1C` are -11% and 1.7.
`O=C(Nc1ccccc1)c1ccc(N(CCO)CC2CC2)nn1`: the “% Inhibition” value is on record as -6% and the Z score was 1.27.
Regarding `Cc1ccc(S(=O)(=O)c2c(C(=O)N3CCCC3)cnc3ccc(C)cc23)cc1`, the “% Inhibition” value was -25% and the Z score amounted to 2.37.
In the same order, the values of `N#CC1(NC(=O)c2nc(-c3cccc(C(F)(F)F)c3)cs2)CC1` are 5% and -0.58.
In the same order, the values of `C[C@@H](NC(=O)N1CCN2C(=O)NCC2C1)c1ccc(Cl)cc1` (stereo not given in full) are -5% and 0.86.
In the same order, the values of `CC(C)c1nnc(CON=C(N)c2cccc(Cl)c2)o1` are -13% and 1.12.
In the case of `CO[C@@H](C(=O)N(C)CCN1CCCC1)c1ccccc1`, the “% Inhibition” value is recorded as -11% and the Z score came out at 2.28.
In the same order, the values of `O=C(NCCc1noc(CO)n1)c1cncc(O)c1` are 0% and 0.01.
In the same order, the values of `Cc1ccc(C(C)NC(=O)C2CC3CCC2O3)cc1F` (stereo not given) are 0% and -0.03.
`COC(=O)c1cc(OC(F)(F)F)ccc1N`: the “% Inhibition” value is recorded as -8% and the Z score turned out to be 1.16.
In the same order, the values of `O=S(=O)(Cc1ccccc1)NC[C@H]1Cn2c(-c3ccc(Cl)cc3)cnc2CO1` are 31% and -3.59.
In the same order, the values of `Cc1cccc(CN(Cc2ccccn2)C(=O)Nc2nnc(C(C)C)s2)c1` are -18% and 2.07.
In the same order, the values of `COc1ccc(C(=O)C(c2cn(C)c3ccccc23)c2cn(C)c3ccccc23)cc1` are -1% and 0.16.
Regarding `COc1cccc(NC(=O)Cc2nnc3ccc(-c4nc(C)no4)cn23)c1`, the “% Inhibition” value was -8% and the Z score is given as 1.32.
In the same order, the values of `CCc1noc(C)c1CNc1cccc(C(=O)O)n1` are 0% and 0.06.
In the same order, the values of `CCCN1CCN(C(=O)c2cc(C)n[nH]2)[C@H]2CS(=O)(=O)C[C@H]21` are -14% and 2.31.
In the same order, the values of `CCCc1[nH]ncc1C(=O)NCCN1C(=O)Cc2ccccc21` are -12% and 2.22.
As to `COc1cc(=O)n2c(c1C(=O)NCCCn1ccnc1)CCNCC2`, the “% Inhibition” value is given as 5% and the Z score is reported as -0.7.
In the same order, the values of `Cc1ncsc1C(=O)Nc1ccnc(Oc2ccc(F)cc2F)c1` are -1% and 0.1.
In the same order, the values of `CN(C(=O)[C@H]1CCO[C@@H]1c1cccnc1)c1ccn(C)n1` are -7% and 1.42.
In the same order, the values of `CCOc1ccc(C(=O)N2C[C@@H](CO)C[C@@H](CN3CCOCC3)C2)o1` are -16% and 3.18.
`COc1ccc(CC(=O)N[C@@]2(C#N)CCc3ccccc3C2)cc1OC(F)F`: the “% Inhibition” value is given as -2% and the Z score turned out to be 0.31.
As to `N#Cc1c(N(C(=O)c2ccccc2C(F)(F)F)C(=O)c2ccccc2C(F)(F)F)oc(-c2ccco2)c1-c1ccco1`, the “% Inhibition” value is recorded as 16% and the Z score was -1.85.
In the same order, the values of `Cc1nn(C)c(C)c1CN(C)c1nc2c(s1)c(C)nn2C` are -7% and 0.89.
Consider `CCc1ccc(CNC(=O)c2noc(-c3ccc(C)cc3)n2)cc1`, for which the “% Inhibition” value is -8% and the Z score was 0.7.
In the same order, the values of `CCn1ccnc(Oc2ccc(-n3ncc4ccccc43)cc2)c1=O` are -5% and 0.91.
In the same order, the values of `C[C@@H](c1ccccc1)N(C(=O)c1cnn(C2CCC2)c1)c1ccccn1` are -2% and 0.38.
In the same order, the values of `CN(CCN1C(=O)NC(C)(C)C1=O)C1Cc2ccccc2C1` are -2% and 0.39.
Consider `Cc1nc([C@H](C)NC(=O)c2cnc(C3CC3)nc2)cs1`, for which the “% Inhibition” value was -5% and the Z score was determined as 0.55.
Consider `O=C1NC2(CCCC2)C(=O)N1CCOc1cccc(Cl)c1`, for which the “% Inhibition” value was -5% and the Z score was 0.85.
Consider `Cc1ccc(-c2nc(CC(N)=O)n[nH]2)n1C(F)F`, for which the “% Inhibition” value was -16% and the Z score stood at 1.87.
`C[C@@H]1CN(C(=O)NCC2CCCCC2)CC[C@]1(C)O`: the “% Inhibition” value was -7% and the Z score was 1.22.
In the case of `Cc1nc(-c2ccc(N3CC(C(N)=O)CCC3C)nc2)[nH]c(=O)c1C` (stereo not given), the “% Inhibition” value was -6% and the Z score was 1.05.
As to `COc1cccc2c(C(=O)N3COCC[C@H]3c3ccccc3)cnn12`, the “% Inhibition” value was 2% and the Z score is given as -0.46.
In the case of `CCN(CCn1cccn1)CC(=O)Nc1ccn(C)n1`, the “% Inhibition” value is -12% and the Z score is recorded as 2.28.
In the same order, the values of `C[C@H]1CN(c2cc(NCCO)ncn2)CC(=O)N1C` are -8% and 0.98.
In the same order, the values of `Cc1ccc([C@H](C(=O)Nc2ccc(C(=O)N3CCCC3)cc2C)N(C)C)cc1` are -17% and 2.13.
In the same order, the values of `CC(=O)Nc1c(-c2ccc(F)cc2)c(C)nn1-c1ccc(C(=O)NCc2ccco2)cc1` are 3% and -0.32.
As to `CC(=O)NC1CCN(c2cc(C)c3cc4c(cc3n2)CCC4)CC1`, the “% Inhibition” value is reported as 24% and the Z score is listed as -3.1.
In the same order, the values of `Cc1ccc(N2CCCN(Cc3cccc(Cl)c3)C2=O)c(NC(=O)Cc2ccc(F)cc2)c1` are -6% and 0.81.
On to `CC(C)c1oncc1NC(=O)[C@@H]1CCCc2c(O)cccc21`, for which the “% Inhibition” value was -8% and the Z score was 1.28.
In the same order, the values of `CN(CC#CCNC(=O)CN(C)S(C)(=O)=O)Cc1ccccc1` are 7% and -0.76.
Consider `CCN(c1cccnc1)S(=O)(=O)c1cc(Cl)cnc1N`, for which the “% Inhibition” value is reported as -7% and the Z score came out at 0.9.
In the same order, the values of `Cc1n[nH]c(N2CCN(S(=O)(=O)c3c(C)cccc3F)CC2)n1` are -10% and 1.33.
In the same order, the values of `O=C(c1cccc(C(F)(F)F)c1)N1CCC[C@@](CO)(CCc2ccccc2)C1` are -4% and 0.49.
Consider `CN1CCC[C@@H]1COc1ncc(C#N)cc1Cl`, for which the “% Inhibition” value came to 8% and the Z score is -1.07.
